Test results taken from the supplement of paper PMC12217912.
The list shows a part of the results. Sequences were assembled here from the parent chain. Values near 0.05 are background.

B1: TEV protease; numbered along this chain (parent)
chain: MGESLFKGPRDYNPISSSICHLTNESDGHTTSLYGIGFGPFIITNKHLFRRNNGTLVVQSLHGVFKVKDTTTLQQHLVDGRDMIIIRMPKDFPPFPQKLKFREPQREERICLVTTNFQTKSMSSMVSDTSCTFPSGDGIFWKHWIQTKDGQCGSPLVSTRDGFIVGIHSASNFTNTNNYFTSVPKNFMELLTNQEAQQWVSGWRLNADSVLWGGHKVFMVKPEEPFQPVKEATQL

Variants of: B1
Assay: raw area under fraction-flipped curve 0-4 h after induction (AUC4h, not background-subtracted), DNA-recorder readout of cleavage of the substrate (dimensionless); higher = more cleavage of the substrate by the protease variant
Conditions: temperature: 34 °C; time window: 0-4 h after rhamnose induction
Description: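 In vivo DNA recorder in E. coli TOP10(DE3) ΔrhaA at 34 °C. Each TEVp single-site mutant (parent TEVp 0) is paired with a single-site variant of the 7-mer TEVs (canonical ENLYFQ|S). The substrate sits between flexible linkers in a Bxb1-sfGFP-TEVs-SsrA fusion, so cleavage stabilises Bxb1 and speeds flipping of a recombination array, read by NGS. The value is the raw area under the fraction-flipped curve over 0-4 h after rhamnose induction (AUC4h), with ≥20 reads per time point. It is not background-subtracted; inactive controls average about 0.047.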
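Further: Bxb1 expression induced with 0.2% (w/v) L-rhamnose at OD600 near 0.5, cultures sampled hourly, flipped fraction per protease–substrate barcode pair counted by paired-end Illumina sequencing.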

Row | Variant | area with substrate ENLAFQS | area with substrate ENLCFQS | area with substrate ENLDFQS | area with substrate ENLEFQS | area with substrate ENLFFQS | area with substrate ENLHFQS | area with substrate ENLIFQS | area with substrate ENLKFQS | area with substrate ENLLFQS | area with substrate ENLNFQS | area with substrate ENLPFQS | area with substrate ENLQFQS | area with substrate ENLRFQS | area with substrate ENLSFQS | area with substrate ENLVFQS | area with substrate ENLWFQS | area with substrate ENLMFQS | area with substrate ENLTFQS | area with substrate ENLGFQS
1 | F41V | 0.049 | 0.0787 | 0.0624 | 0.059 | 0.0843 | 0.072 | 0.105 | 0.0704 | 0.0777 | 0.0696 | 0.0503 | 0.0718 | 0.0713 | 0.0604 | 0.116 | 0.0736 | – | – | –
2 | F41L | 0.0569 | 0.0733 | 0.0619 | 0.0585 | 0.0835 | 0.0735 | 0.0781 | 0.0761 | – | 0.0591 | 0.05 | 0.0704 | 0.0741 | 0.0546 | – | – | – | – | –
3 | I42N | 0.0536 | – | 0.0376 | – | 0.0508 | 0.0304 | 0.0542 | 0.0505 | 0.0379 | 0.0576 | – | 0.0518 | 0.0541 | 0.0401 | – | 0.0525 | 0.0444 | – | –
4 | D11M | 0.0644 | 0.0736 | 0.0586 | – | 0.0652 | 0.0628 | – | 0.0654 | 0.073 | 0.0678 | 0.0664 | 0.0613 | 0.0635 | 0.0767 | 0.0405 | 0.0683 | 0.0683 | 0.0648 | –
5 | R10N | 0.0582 | 0.0546 | 0.0615 | – | 0.0791 | 0.0564 | – | 0.0749 | 0.0681 | 0.0701 | 0.0503 | – | 0.0764 | 0.0599 | – | 0.0802 | – | 0.0936 | –
6 | F38A | 0.0832 | 0.0616 | 0.0663 | 0.0577 | 0.0721 | 0.0495 | 0.0771 | 0.0694 | – | 0.0683 | 0.0496 | – | – | 0.0514 | – | – | 0.0682 | – | 0.101
7 | F38M | 0.0599 | 0.0682 | 0.0584 | 0.0647 | 0.0772 | 0.0603 | 0.0778 | 0.0698 | 0.0616 | 0.0597 | 0.048 | – | 0.0583 | 0.0555 | – | 0.0539 | 0.0734 | – | –
8 | F38L | 0.0683 | – | 0.0615 | 0.0645 | 0.0699 | 0.0628 | 0.0695 | 0.0701 | 0.0678 | 0.0544 | 0.0624 | 0.0687 | 0.0581 | 0.0629 | – | 0.0676 | 0.0711 | – | 0.0388
9 | K7Q | 0.063 | – | 0.065 | 0.0552 | 0.0892 | 0.0708 | 0.078 | 0.0821 | 0.0775 | 0.0667 | 0.0557 | – | – | 0.0606 | 0.0858 | 0.208 | 0.0799 | – | –
10 | G28W | 0.0633 | 0.0531 | 0.0763 | – | 0.0662 | 0.0663 | 0.0761 | 0.0673 | 0.0694 | 0.0643 | 0.0545 | 0.0592 | 0.0606 | 0.0569 | – | 0.0609 | – | – | 0.0474
11 | G28P | 0.0638 | 0.0719 | 0.0595 | 0.0607 | 0.0764 | 0.057 | – | 0.0673 | 0.0553 | 0.0471 | – | – | 0.0525 | 0.0587 | – | 0.0667 | – | – | –
12 | G28R | 0.0529 | 0.0495 | 0.0609 | 0.0742 | 0.0734 | – | 0.0623 | 0.0835 | – | 0.0575 | 0.0649 | 0.0742 | 0.0659 | 0.0498 | – | 0.0617 | 0.0621 | – | –
13 | G28N | 0.0588 | – | 0.0736 | 0.0762 | – | 0.0753 | – | – | 0.0528 | – | 0.0697 | – | 0.087 | – | – | 0.0664 | – | – | –
14 | G28A | 0.0528 | – | 0.063 | 0.0513 | 0.0796 | 0.0669 | 0.063 | 0.0705 | – | 0.0569 | 0.0574 | 0.0714 | 0.066 | 0.0561 | – | – | – | – | 0.0768
15 | D27T | 0.0649 | 0.0617 | 0.0615 | 0.0124 | 0.0775 | – | – | 0.088 | 0.0785 | 0.0676 | 0.0611 | 0.065 | 0.0686 | – | – | – | – | – | –
16 | S17R | 0.0785 | – | 0.0547 | 0.0631 | 0.0807 | 0.108 | 0.116 | 0.0665 | – | – | 0.073 | 0.0522 | 0.0716 | 0.0852 | 0.0964 | 0.069 | – | – | –
17 | S17H | 0.0596 | – | 0.0664 | 0.056 | 0.0889 | 0.0728 | – | 0.082 | 0.0755 | 0.0653 | 0.0551 | 0.0703 | 0.0739 | 0.0621 | – | – | – | – | 0.0678
18 | S17E | 0.087 | 0.0646 | 0.0586 | 0.063 | 0.0873 | 0.0683 | 0.0881 | 0.0697 | – | 0.0727 | 0.0628 | – | 0.0808 | 0.0597 | – | 0.064 | – | 0.0719 | –
19 | S17M | 0.0694 | – | 0.0579 | 0.0675 | 0.09 | 0.0589 | 0.0777 | 0.0736 | 0.0777 | 0.0844 | 0.0506 | 0.0886 | 0.072 | 0.0702 | 0.0853 | 0.0586 | – | – | 0.0611
20 | S17V | 0.0422 | – | 0.0678 | 0.0595 | 0.0721 | 0.0679 | 0.0727 | 0.0595 | 0.0627 | 0.0649 | 0.0777 | 0.0364 | 0.0748 | 0.0663 | 0.0684 | 0.0684 | 0.0688 | – | –
21 | S17N | 0.0583 | – | 0.0583 | 0.0458 | 0.0737 | 0.0721 | – | 0.0739 | 0.0814 | 0.0568 | – | 0.0679 | 0.0758 | 0.0713 | 0.0974 | – | 0.0741 | – | 0.0782
22 | S17K | 0.081 | 0.0765 | 0.0625 | – | 0.0845 | 0.0763 | 0.0796 | 0.0871 | – | 0.0614 | 0.0642 | – | 0.0715 | 0.0631 | 0.1 | 0.0676 | – | – | 0.0701
23 | S26A | 0.0592 | 0.0824 | 0.0689 | 0.0632 | 0.0648 | 0.0577 | 0.0612 | 0.0705 | 0.0701 | 0.0674 | 0.0771 | 0.0558 | 0.0664 | 0.0614 | 0.0649 | 0.0626 | – | – | 0.0735
24 | S26G | 0.073 | – | – | 0.048 | 0.0686 | 0.0523 | – | – | – | – | 0.07 | – | 0.073 | – | – | – | 0.066 | – | –
25 | S26T | 0.043 | 0.0572 | 0.0567 | – | 0.108 | 0.0604 | – | 0.0729 | 0.0723 | 0.0698 | 0.0476 | – | 0.0694 | 0.0668 | – | 0.043 | – | – | –
26 | I19F | 0.0669 | – | 0.055 | 0.0725 | 0.0701 | 0.0528 | 0.0641 | 0.0661 | 0.0656 | 0.0632 | 0.0672 | 0.0742 | 0.043 | 0.07 | – | 0.0674 | 0.0608 | 0.0701 | –
